The campaign covered roughly 220,000 compounds. About 5,700 (2.6%) were called active. The inconclusive results got no clear call from the source; some entries with a clear call stand among them for comparison. The call rests on the fitted dose curve; in most records, active means well fitted inhibition curve with a large enough effect; inconclusive means small, poorly fitted or top-dose-only effect; inactive means no such curve, though single readings can be large or run the other way. Where the call is inconclusive, the potency comes from a doubtful curve fit.
target: Lysine-specific demethylase 5B (Homo sapiens) (UniProt Q9UGL1); experiment: Primary screen for KDM5B Histone Demethylases FDH-coupled qHTS; details: FDH-coupled NADH fluorescence (FDH is formaldehyde dehydrogenase); activity change, negative = inhibition: at 57.7 µM (top of the series) unless noted; further: nearly all actives have a fitted effect of over 70% in size; on activity change, negative = inhibition: 0% is about no effect
Sequence of UniProt Q9UGL1 (Q9UGL1 whole entry, looked up, the tested form may be a part): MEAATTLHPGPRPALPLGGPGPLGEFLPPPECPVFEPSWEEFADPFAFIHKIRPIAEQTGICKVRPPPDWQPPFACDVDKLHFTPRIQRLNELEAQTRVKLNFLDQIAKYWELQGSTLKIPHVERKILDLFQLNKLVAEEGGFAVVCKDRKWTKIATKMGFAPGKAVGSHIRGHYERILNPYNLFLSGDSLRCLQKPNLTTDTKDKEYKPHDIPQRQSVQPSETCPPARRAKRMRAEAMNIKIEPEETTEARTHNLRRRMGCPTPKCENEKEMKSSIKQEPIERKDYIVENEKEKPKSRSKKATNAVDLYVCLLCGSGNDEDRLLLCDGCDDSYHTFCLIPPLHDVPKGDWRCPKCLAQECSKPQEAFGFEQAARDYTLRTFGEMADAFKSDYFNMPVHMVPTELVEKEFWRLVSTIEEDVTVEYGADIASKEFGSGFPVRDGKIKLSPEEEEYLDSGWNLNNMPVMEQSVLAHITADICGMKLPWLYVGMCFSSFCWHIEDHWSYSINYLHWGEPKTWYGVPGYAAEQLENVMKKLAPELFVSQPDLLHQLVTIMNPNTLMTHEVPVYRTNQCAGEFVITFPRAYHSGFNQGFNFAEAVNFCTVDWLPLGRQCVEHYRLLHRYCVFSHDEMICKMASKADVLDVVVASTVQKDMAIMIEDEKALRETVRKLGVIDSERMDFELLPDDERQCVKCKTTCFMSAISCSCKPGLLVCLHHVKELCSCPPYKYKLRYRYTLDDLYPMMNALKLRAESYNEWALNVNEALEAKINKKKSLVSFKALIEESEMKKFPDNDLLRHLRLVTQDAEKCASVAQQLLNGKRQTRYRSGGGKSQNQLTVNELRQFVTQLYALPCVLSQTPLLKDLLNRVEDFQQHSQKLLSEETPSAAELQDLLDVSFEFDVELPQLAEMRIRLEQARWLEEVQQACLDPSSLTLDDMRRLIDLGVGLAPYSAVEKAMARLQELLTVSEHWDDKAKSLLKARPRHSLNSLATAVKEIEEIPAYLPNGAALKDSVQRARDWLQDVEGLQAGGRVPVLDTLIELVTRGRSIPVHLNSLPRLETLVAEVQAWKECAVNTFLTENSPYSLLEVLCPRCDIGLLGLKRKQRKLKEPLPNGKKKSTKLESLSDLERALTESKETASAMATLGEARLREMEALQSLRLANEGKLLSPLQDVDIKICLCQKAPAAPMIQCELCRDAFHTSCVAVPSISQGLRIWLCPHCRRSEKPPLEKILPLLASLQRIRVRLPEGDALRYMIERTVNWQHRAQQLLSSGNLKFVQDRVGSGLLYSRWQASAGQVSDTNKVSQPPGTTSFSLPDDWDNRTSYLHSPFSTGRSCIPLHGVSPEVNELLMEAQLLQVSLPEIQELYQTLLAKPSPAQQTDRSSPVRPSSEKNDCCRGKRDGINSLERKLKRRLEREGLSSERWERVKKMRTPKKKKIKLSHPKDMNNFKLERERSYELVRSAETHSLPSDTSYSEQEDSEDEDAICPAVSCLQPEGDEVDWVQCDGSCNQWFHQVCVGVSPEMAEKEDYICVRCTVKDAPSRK
In short: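 Inhibition is measured as reduced NADH fluorescence generation from FDH coupling to formaldehyde release. Truncated KDM5BΔAP at 200 nM final acts on H3K4me3 peptide (12.5 µM in substrate mix) in pH 7.5 HEPES buffer with Tween-20, 30 min, room temperature.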
Potency means the concentration at half of the fitted maximal effect; tags describe the fitted curve by direction and shape.

Structure (SMILES) | Potency | activity change, negative = inhibition
O=C1NCc2ccccc2CC12CCCN2Cc1cccc(O)c1 (stereo not drawn) | inactive | –
COc1cccc(CCC(=O)N2CCCN(c3cc(-c4ccc(Cl)cc4)[nH]n3)CC2)c1 | inconclusive: 14.1 µM [inhibitor, partial curve, poor fit] | –
COCCn1c(SCC(=O)c2ccc(Cl)cc2)nnc1-c1ccc(Cl)cc1 | inactive | –
O=C(NCc1ccccc1Cl)c1ccc(NC(=O)c2nsc3ccccc23)cc1 | inconclusive: 44.7 µM [inhibitor, single point] | –
CCCNC(=O)Cc1csc2nc(C)c(-c3cc(C)n(-c4cccc(C)c4C)n3)c(=O)n12 | inconclusive: 28.2 µM [inhibitor, partial curve, poor fit] | –
CC(C)c1noc(-c2cccn3c(CNC(=O)C(C)c4ccccc4)nnc23)n1 (stereo not drawn) | active: 14.1 µM | –
O=C(CN1CCN(C(=O)c2cccc(I)c2)CC1)N1CCCCC1 | inactive | –
CC(=O)c1ccc(OCCCCN2CCCC2)cc1 | inconclusive: 22.4 µM [inhibitor, single point] | –
Cc1ccc(NC(=O)C2CCN(C(=O)c3cnn(-c4ccccc4)c3-n3cccc3)CC2)cc1 | – | inconclusive: -36.2% [inhibitor]
CC1=C[C@@H](CNC(=O)CC2(CC(=O)O)CCCC2)[C@H](C(C)C)C[C@H]1Cc1nc2ccc(C)cc2[nH]1 | inconclusive: 17.8 µM [inhibitor, partial curve] | –
CCOCc1nc(C2CCCN(C(=O)COC)C2)no1 (stereo not drawn) | inactive | –
CCc1noc(-c2cccn3c(CNC(=O)Cc4cccc(F)c4)nnc23)n1 | active: 25.1 µM | –
COc1ccc(CCC(=O)NCc2nc3cccnc3n2Cc2cccc(OC)c2)cc1 | – | inconclusive: -38.9% [inhibitor]
CC(=O)Nc1ccc(CN2CCC3(CC2)CC(=O)c2ccc(Cl)cc2O3)cc1 | inactive | –
Cc1c(C(=O)Nc2ccccc2Br)oc2ccc(S(=O)(=O)N3CCOCC3)cc12 | inconclusive: 0.891 µM [inhibitor, full curve, poor fit] | –
COc1cccc(CC(=O)N[C@@H]2CCC[C@@H](C(=O)NCc3cc(C)on3)CC(=O)N(C)C2)c1 | inactive | –
Cc1ccc(S(=O)(=O)NC(=O)Nc2ccc(F)c(F)c2)cc1 | inconclusive: 20 µM [inhibitor, single point] | –
COc1ccc(CN2CCN(c3cc(N(C)C)ncn3)CC2CCO)c(C)c1C (stereo not drawn) | inconclusive: 14.1 µM [inhibitor, partial curve] | –
Cc1ccnc(NC(=O)C2c3ccccc3C(=O)N(CC(C)C)C23CCCC3)c1 (stereo not drawn) | active: 22.4 µM | –
Cc1ccccc1OCC(=O)Nc1c(C)ccc2nsnc12 | inconclusive: 39.8 µM [inhibitor, single point] | –
CC(C)c1ccc(S(=O)(=O)c2nnn3c2nc(N2CCOCC2)c2sccc23)cc1 | inconclusive: 1.26 µM [inhibitor, full curve, poor fit] | –
CCOc1ccccc1NC(=O)Cn1nnc(C(=O)NCc2ccccc2)c1N | inactive | –

Structure (SMILES) | Potency | activity change, negative = inhibition
O=C1COc2ccc(NCCc3ccccn3)nc2CN1Cc1ccc(C(F)(F)F)cc1 | inconclusive: 22.4 µM [inhibitor, single point] | –
COCCNC(=O)c1ccc2c(c1)N(Cc1ccc(C(F)(F)F)cc1)C(=O)c1ccccc1S2 | inactive | –
COc1ccccc1CC(=O)N1CCCc2ncc(C(=O)Nc3cccc(C(F)(F)F)c3)cc21 | inconclusive: 35.5 µM [inhibitor, single point] | –
COc1ccc(-c2ccnc3nc(CC(C)C)nn23)cc1 | inactive | –
O=[n+]1cc(-c2ccccc2)n([O-])c2ccccc21 | inconclusive: 28.2 µM [inhibitor, partial curve, poor fit] | –
Cc1nc(-c2ccc(OC3CCN(C(=O)CCc4nc5ccccc5[nH]4)C3)cc2)no1 (stereo not drawn) | inactive | –
O=C(c1cccc(O)c1)N1CC=C(c2cnc3cnc(-c4ccccc4)cn23)CC1 | active: 28.2 µM | –
O=C(O)/C=C/C(=O)Nc1ccc(Cl)c(C(=O)O)c1 | inconclusive: 25.1 µM [inhibitor, single point] | –
O=S(=O)(c1ccccc1)c1nc(-c2cccs2)oc1N1CCCCC1 | inconclusive: 28.2 µM [inhibitor, partial curve, poor fit] | –
O=C(Cn1ccn2nc3c(c2c1=O)CCCCC3)NCc1ccc(Cl)cc1 | inconclusive: 35.5 µM [inhibitor, single point] | –
Cc1cccc(OCCCSc2nc(-c3ccc(C(C)(C)C)cc3)nc3cc(=O)[nH]n23)c1C | inconclusive: 15.8 µM [inhibitor, partial curve, poor fit] | –
COc1ccc(Cl)cc1NC(=O)N1CCC2(CC1)N=C(c1ccc(C(C)(C)C)cc1)C(=O)N2 | inactive | –
CC(C)c1ccc([S+](=O)([O-])c2nnn3c2nc(N2CCC(F)CC2)c2ccccc23)cc1 | inactive | –
c1ccc(-c2noc(-c3cncnc3NCc3cccs3)n2)cc1 | inconclusive: 25.1 µM [inhibitor, partial curve] | –
CC(C)OCCCn1c(SCC(N)=O)nc2c(sc3ccccc32)c1=O | inconclusive: 17.8 µM [inhibitor, partial curve, poor fit] | –
O=C(CSc1nccc(-c2cccs2)n1)Nc1ccc(Cl)cc1 | inconclusive: 28.2 µM [inhibitor, partial curve, poor fit] | –
O=C(NCCCCc1ccccc1)c1nn(-c2ccccc2F)nc1CO | inconclusive: 35.5 µM [inhibitor, single point] | –
CN(C)[C@H]1CCN(C(=O)Cc2cn(C)c3ccccc23)C[C@H]1CCC(=O)O | inconclusive: 39.8 µM [inhibitor, single point] | –
COC(=O)c1sccc1NC(=O)N1CCCCCCNC(=O)CC1 | inconclusive: 15.8 µM [inhibitor, single point] | –
COC(=O)c1ccc(C2NC(=S)NC3=C2CCc2ccccc23)cc1 (stereo not drawn) | inconclusive: 15.8 µM [inhibitor, partial curve, poor fit] | –
CC(C)CCN1CCn2c(nn(-c3cccc(Cl)c3)c2=O)C1 | inconclusive: 50.1 µM [inhibitor, partial curve, poor fit] | –

— PubChem BioAssay AID1347165 (National Center for Advancing Translational Sciences (NCATS), 2019)
